The full ranking holds about 33,000 sequences; the median of “E-score (-0.5 to 0.5)” is about -0.053, and the highest 2% start at about 0.37. The list shows a part of the results.
The sequences below were run against Hap1 (UniProt P0CE41) (assay: PBM E-score (8-mer binding enrichment) (E-score (-0.5 to 0.5)); higher = stronger / more preferred TF binding; most listed sequences are background and not binding sites). Conditions: protein concentration: 200 nM; construct: GST-DNA-binding domain.
Procedure: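 Universal 'all 10-mer' protein binding microarrays (Agilent AMADID 015681) probed with GST-tagged S. cerevisiae TFs (full-length or DBD) made by in vitro transcription/translation (PURExpress), about 100-200 nM. Bound TF was detected with fluorescent anti-GST. Each ungapped 8-mer (which stands for itself and its reverse complement) is scored by the PBM enrichment score (E-score), a modified Wilcoxon-Mann-Whitney statistic from -0.5 to +0.5, computed with the Universal PBM Analysis Suite. Scale: above 0.35 generally sequence-specific binding.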

Sequence of UniProt P0CE41 (P0CE41 whole entry, the tested form may be a part): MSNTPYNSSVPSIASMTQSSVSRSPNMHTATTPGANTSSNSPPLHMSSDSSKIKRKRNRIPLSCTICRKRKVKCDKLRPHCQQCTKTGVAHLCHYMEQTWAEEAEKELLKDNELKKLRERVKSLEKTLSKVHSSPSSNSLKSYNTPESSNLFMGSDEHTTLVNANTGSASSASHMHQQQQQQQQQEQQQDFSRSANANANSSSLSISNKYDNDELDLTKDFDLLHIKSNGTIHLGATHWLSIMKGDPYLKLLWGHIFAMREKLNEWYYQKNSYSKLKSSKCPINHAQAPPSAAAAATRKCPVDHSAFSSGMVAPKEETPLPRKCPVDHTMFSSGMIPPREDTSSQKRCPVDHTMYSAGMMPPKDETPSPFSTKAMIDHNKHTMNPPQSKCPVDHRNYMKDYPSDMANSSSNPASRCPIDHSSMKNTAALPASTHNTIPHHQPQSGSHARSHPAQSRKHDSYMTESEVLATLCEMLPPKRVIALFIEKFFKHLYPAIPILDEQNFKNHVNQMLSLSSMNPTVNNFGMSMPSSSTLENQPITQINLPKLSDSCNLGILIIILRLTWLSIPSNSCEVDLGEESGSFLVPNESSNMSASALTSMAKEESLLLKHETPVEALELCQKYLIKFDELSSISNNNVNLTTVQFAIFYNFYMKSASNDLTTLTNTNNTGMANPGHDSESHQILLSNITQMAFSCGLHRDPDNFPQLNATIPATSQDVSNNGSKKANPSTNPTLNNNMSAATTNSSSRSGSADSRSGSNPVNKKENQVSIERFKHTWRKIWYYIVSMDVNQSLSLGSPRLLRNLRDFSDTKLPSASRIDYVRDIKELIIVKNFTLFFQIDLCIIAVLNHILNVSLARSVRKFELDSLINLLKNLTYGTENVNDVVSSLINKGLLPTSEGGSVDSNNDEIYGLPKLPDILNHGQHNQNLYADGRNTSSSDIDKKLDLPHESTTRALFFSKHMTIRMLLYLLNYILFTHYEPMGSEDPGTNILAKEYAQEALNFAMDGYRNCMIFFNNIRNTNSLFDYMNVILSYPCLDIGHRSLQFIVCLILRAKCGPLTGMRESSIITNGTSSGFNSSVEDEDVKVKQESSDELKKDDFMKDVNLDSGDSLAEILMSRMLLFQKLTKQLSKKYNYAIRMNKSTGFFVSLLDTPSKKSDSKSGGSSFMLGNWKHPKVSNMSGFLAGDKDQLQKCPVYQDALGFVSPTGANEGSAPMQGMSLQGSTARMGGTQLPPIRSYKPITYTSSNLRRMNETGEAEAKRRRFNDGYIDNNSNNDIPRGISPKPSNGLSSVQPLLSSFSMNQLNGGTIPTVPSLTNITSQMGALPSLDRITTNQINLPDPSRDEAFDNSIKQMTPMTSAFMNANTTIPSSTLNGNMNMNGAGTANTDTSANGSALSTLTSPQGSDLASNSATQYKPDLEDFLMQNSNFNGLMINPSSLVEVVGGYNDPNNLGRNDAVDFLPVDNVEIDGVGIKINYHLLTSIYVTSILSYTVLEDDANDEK

Sequence	PBM E-score
CTTAGGCC	-0.0166
AGTTGCCG	0.108
CCGTTCAG	0.109
GGATACTA	0.188
GAACGTTA	0.0621
ACACAGGC	-0.279
AAGAGTGG	-0.0856
GATCCCCC	0.0685
GGAACCAA	0.0624
CCGTCCAG	-0.0467
TAACGCAA	0.0452
CCGCGTAG	-0.0382
GCTAAGCC	0.0914
GTGCCATA	-0.271
GATGATGC	-0.179
CCCCCGGC	0.317
ATATGGAG	0.0718
GATCCCGA	0.256
GTCCATCA	-0.0623
GTAAGGCA	-0.201
AGGTCCCG	0.202
CACGGCTG	0.0481
GTACCGAA	0.0413
GGGATCGA	-0.062
ACGAATTC	-0.132

Sequence	PBM E-score
CGCACCAA	0.0721
ACCGTACC	0.0852
CAGCCCCC	-0.289
CTGGGAGA	-0.127
AGCTGGGG	-0.257
GGCTGAGA	0.083
AAAAACAA	0.0441
CGTCCTCA	-0.196
GACAACTC	0.169
ACCCCCTC	-0.138
CCATGGTC	-0.239
ATGCAGAG	-0.179
ATGGCGAA	0.115
CAGGTGGC	-0.151
ATAGTTGC	0.00283
ACTTGAAT	-0.116
ACCAGCCG	0.147
CGTAGTCA	-0.182
TACAGAAA	-0.0305
CGACCTCC	0.143
CCAGTTCA	0.0993
GAGGATAC	-0.193
CCTCAGTA	-0.18
AATCATTA	-0.221
CAAGACTC	-0.145

Sequence	PBM E-score
CCGGTCAA	0.323
CGGCACCC	0.051
CATCGCGA	0.0702
GGAGGAAC	0.107
CGGTCAAA	0.269
ATAAGGCG	-0.185
AGCTCAAA	0.0384
CGACGTGA	-0.119
ATCTCAAG	-0.179
AGGCTTGA	-0.199
CCGCTCAA	0.0207
GCCTCCGA	0.123
ATCAGCGC	0.0985
AGACACTG	-0.266
CTGCATCA	-0.337
AAAGGGGT	-0.326
CCTACTTC	-0.139
ATATACAC	-0.027
AACAACGG	0.214
GATCGGGA	0.136
CTAAATAG	-0.263
AGTCAATG	-0.261
AGGGGAAG	-0.261
CCTGTGTC	-0.15
CGTAGTAC	-0.00176

Sequence	PBM E-score
ATCTGACA	-0.316
AGCTCTCG	0.111
CCATGTAG	-0.0462
AATGCCCT	-0.166
AAGAAAGA	-0.104
CTAGAAAC	-0.298
GGTGCCGA	0.243
TGATCGCA	-0.105
ACGGTCGG	0.225
AGATGAGG	-0.145
AGGAGTGC	-0.0701
GAAACCTC	-0.00121
CAGGTAAC	-0.108
CGTATCTA	-0.0509
ACAGAAAC	-0.164
CCCTCAAC	-0.0645
CGATATCG	0.388
AAGCCATT	-0.153
AACTATTG	-0.166
TTACGAAA	-0.0562
AGTAACCC	-0.0672
CCCAAAGC	-0.136
CCTCTCCG	0.106
AGTGACAA	-0.26
AGTAGGCA	-0.0521

Sequence	PBM E-score
ACGACTCG	-0.0604
TCACGACA	-0.24
AGGAGGCC	-0.254
CTCGGGTC	0.286
GAATATAA	-0.00181
CGGTAATA	0.408
ATAGCTTC	-0.0479
GATACTAC	0.205
ATTCCAAC	-0.0865
GCCCGGCC	0.329
AAACATTC	-0.152
GGCGGATA	0.284
AGATTAGG	0.0128
GCCAACCA	0.00652
CGTGCGTA	0.0451
AGCCGGAA	0.371
ACGTAGCA	-0.22
AAGGTTAA	-0.0858
CGACGACC	0.251
CGCCTTCC	0.0965
AGCCTTTG	-0.236
ACAGCCGA	0.282
AACGGAAT	0.306
CGAGCACA	0.156
CGCGCTAA	0.165

Sequence	PBM E-score
GAATGTAA	0.131
ATCCTGTG	-0.205
GATAGACA	-0.229
CCAGTCGG	0.214
ATGGGCGG	0.0669
AATAATTA	0.0105
AAGTATGG	-0.104
ATTAGTAC	0.0729
CTAAGATC	0.0174
AGCGTTTC	-0.208
CCCAATAG	-0.334
GCGTCCGA	0.305
GGTAGGTA	-0.0912
GCAGATCC	0.0294
CCACATTC	-0.0225
AGGGGGCC	-0.211
CATTAGCA	-0.142
TGACCTAA	-0.158
AGGTGACT	-0.258
CTTTCCGC	0.194
ACTTATTC	0.164
ACCCGGTC	0.222
AAGCTTCG	0.0819
TCGTGCAA	-0.255
CGCATGAC	-0.111

Sequence	PBM E-score
CCGGCTTC	0.256
GAGGGTGC	0.00201
AAGTTGAT	-0.0761
CCTCTCTC	-0.241
AGTGTCTG	-0.21
ACTGATGC	-0.133
CATAATCA	-0.0514
AGACACCC	-0.165
AATCAAGC	-0.214
CAACTTAC	-0.0151
AGGTGTCG	-0.00389
CTGGCCCA	-0.198
AGCCGCTA	0.112
CATCAGGA	0.074
ATATGATA	0.123
GCACGGCA	-0.0211
AAATTCCA	0.0643
TCAGAGCA	-0.266
GGGAGGTA	-0.00628
GACTTAAC	0.0431
ACTCAAAT	-0.18
ACAACAAC	-0.234
ACGCTGTG	-0.159
AATTAATA	0.103
ATAATATA	0.0224

Sequence	PBM E-score
ATCACGTG	-0.0845
CGCTCCAG	0.00737
GAGTGCGC	0.0129
AGTAGTTC	0.0511
CACAGGAC	0.00956
CAAGCGCC	0.17
AGGGTTGC	-0.236
ACTTTAGG	-0.156
AAATCGAT	-0.142
GTCGGGCA	0.108
ACCTAGAG	-0.208
GACTCCGC	0.174
CCTCTCAG	-0.359
GGCGCTAA	0.172
CTTTGCAA	-0.0923
ACCGGAAC	0.403
ACCCGTTG	0.0238
AGACGTTG	-0.0723
GAAAAGTC	0.0327
AAGAGAGG	-0.141
TACATGGA	0.122
AAATGTTG	-0.267
AGAATGCT	-0.273
CCAGCCAC	-0.0766
ATTATTGA	-0.15

Sequence	PBM E-score
ATGAAACG	-0.0187
GAGCCTAC	-0.0381
CCCCGTAA	0.139
CCTCACGA	-0.313
TGCGAAAA	-0.00129
TAACATTA	-0.0125
AGCAAAGC	-0.0791
ATAATTCC	0.309
GTCCGGGA	0.38
ACCTACCC	-0.0199
ATCTCACA	-0.307
CCAATATC	0.117
TAGGACCA	-0.0211
CGTGCGAC	-0.0831
CATCCAAA	-0.16
GGTTCTCA	-0.221
CACTTCGG	0.257
AGTGGCAG	-0.226
ATTATATG	-0.112

— the supplement of paper PMC3334620
